From PubChem BioAssay (NCI)
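How tested: cells in 96-well plates exposed to compound for 48 hours at five concentrations. GI50: concentration for 50% inhibition of growth. TGI: total growth inhibition.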 Peptide text beside a SMILES is read from it. * marks the point of attachment. X33 = O=C(c1ccc(-c2ccc(Cl)cc2Cl)o1)*

Tested on: NCI-H322M lung
Assay: NCI tumour cell line growth inhibition, 48 h

| Structure (SMILES) | GI50 [µM] | TGI [µM] |
| --- | --- | --- |
| COc1ccc2c(c1)C(C)Cc1c(ncnc1-n1c(C)nc3ccccc31)N2C (configuration not stated) | 10.6 | 27.6 |
| O=C(O)c1ccc(S(=O)(=O)c2ccccc2[N+](=O)[O-])cc1 |  | > 10 |
| O=C(NCCCCCCNCc1cccc2ccccc12)Nc1cccc2ccccc12 |  | > 100 |
| NC(CS/C(Cl)=C/Cl)C(=O)O (configuration not stated) | 24 | > 78.1 |
| C=CCCC(=O)CC(O)(C(F)(F)F)C(F)(F)F |  | > 100 |
| N#CC(=NCCO)C1=C(O)c2ccccc2C1=O |  | > 100 |
| Cc1cc(N/N=C/c2nc(-c3ccc(Br)cc3)oc2C)c2cc(Br)ccc2n1 | 5.53 | 18.3 |
| C1CNCCNCCN1 |  | > 100 |
| COC(=O)/C(C=O)=C/Sc1ccccc1 |  | > 100 |
| O=[N+]([O-])c1ccc2c(c1)C(c1ccccc1Cl)=Nc1cn[nH]c1N2 | > 25 | > 25 |
| C[C@H](N)C(=O)Nc1ccc(-c2nc3ccccc3s2)cc1 |  | 75.5 |
| CC(=O)O[C@H](C[C@H](C(C)C)N(C)C(=O)[C@@H](NC(=O)[C@H]1CCCCN1C)C(C)C)c1nc(C(=O)N[C@@H](Cc2ccccc2)C[C@H](C)C(=O)O)c(CCOCc2ccccc2)s1 | < 0.001 | > 10 |
| c1cc2nnnn2nc1N1CCCC1 |  | > 100 |
| CC(C)OC(=O)NNc1cc(Cl)ccc1Cl |  | > 100 |
| O=C1[C@H]2ON(c3ccccc3)C(c3ccc(Cl)cc3)[C@H]2C(=O)N1c1ccc(Cc2ccc(N3C(=O)[C@@H]4ON(c5ccccc5)C(c5ccc(Cl)cc5)[C@@H]4C3=O)cc2)cc1 (some centres not stated) |  | > 100 |
| C/C=C/C(O)P1(=O)N(Cc2ccccc2)[C@@H]2CCCC[C@H]2N1Cc1ccccc1 (some centres not stated) |  | > 25 |
| C=C1C[C@]23CCC4C(C)(C)C(=O)CC[C@]4(C)C2C[C@H]1C(O)C3=O (some centres not stated) |  | > 75 |
| O=c1c2ncn(COCCCl)c2n(-c2ccccc2)c(=S)n1-c1ccccc1 |  | > 100 |
| O=C(Cc1ccccc1)NN1C(=O)/C(=C\c2cccc(O)c2)SC1=Nc1ccccc1 |  | > 100 |
| Cc1cc(C)cc(Nc2cc(=O)[nH]c(=O)[nH]2)c1 |  | > 100 |
| COc1ccc2c(c1)[C@@]13CCCC[C@H]1[C@@H](C2)N(C)CC3=O |  | > 100 |
| CCC1(C(=O)OC(C)(C)C)OC12C(C)CCCC2C (configuration not stated) |  | > 100 |
| CC12CCCCC1(C)C2Sc1ccccc1 (configuration not stated) |  | > 100 |
| CC1=NN(C(=O)CC(=O)N(C(=O)c2ccccc2Cl)c2ccc(C)cc2)C(=O)C1N=Nc1ccc([N+](=O)[O-])cc1 (configuration not stated) |  | > 100 |
| Cc1cc(C)[n+](CCOc2ccc(/C(=C(/Cl)c3ccccc3)c3ccccc3)cc2)c(C)c1 |  | 13.1 |
| CCOP(=O)(OCC)c1c(C(=O)OC)cc(=O)[nH]c1-c1ccc(C)cc1 |  | > 54.3 |

| Structure (SMILES) | GI50 [µM] | TGI [µM] |
| --- | --- | --- |
| CCCSc1ccc2[nH]c(/N=C/c3ccco3)cc2c1 |  | 92.5 |
| CN1NC(=Nc2ccccc2)Sc2c1cnn(-c1ccccc1)c2=O |  | > 100 |
| CCOC(=N)CC(=O)Nc1cccc(C)c1C |  | > 100 |
| CC(C)CCCC(C)[C@H]1CCC2[C@H]3C(CC[C@@]21C)[C@@]1(C)CCC=C[C@]12C[C@@H]2[C@@H]3O (some centres not stated) |  | > 100 |
| COc1cc2ccc3c4cc(OC)c(OC(C)C)cc4cnc3c2cc1OC |  | > 100 |
| CC(C)N=c1cc2n(-c3ccc(Cl)cc3)c3ccccc3nc-2cc1Nc1ccc(Cl)cc1 | 2.03 | > 100 |
| O=C1OC2(OC2c2ccccc2)c2ccccc21 (configuration not stated) |  | > 100 |
| COc1cc2c(cc1O)C1Cc3ccc(OC)c(O)c3C(C2)N1C (configuration not stated) |  | > 100 |
| CCC(C#N)NC(=O)NC(C#N)CC (configuration not stated) |  | > 100 |
| C=C1C(=O)O[C@H]2[C@H]1CC/C(COC(=O)c1ccc(Cl)nc1)=C\CC[C@@]1(C)O[C@@H]21 | 6.87 | 19.8 |
| Cc1cn(C2CC(n3cc(Cn4cc(Br)c(=O)[nH]c4=O)nn3)C(CO)O2)c(=O)[nH]c1=O (configuration not stated) |  | > 100 |
| COc1ccc(O)cc1 |  | > 100 |
| O=C(/C=C/c1cc(CN2CCOCC2)c(O)c2ncccc12)c1cc(CN2CCOCC2)c(O)c2ncccc12 | 0.573 | > 100 |
| NC(N)=NCCCCCNc1noc(Cc2c[nH]c3cc(Br)ccc23)n1 | 12.1 | 28.3 |
| CC(=O)O[C@H]1CC[C@@]2(C)C(=CC[C@H]3[C@@H]4C[C@H](N5CCCC5)[C@H](OC(C)=O)[C@@]4(C)CC[C@@H]32)C1 |  | > 100 |
| Nc1c(Cl)ncnc1N[C@@H]1C[C@H]1CO |  | > 100 |
| CC(=O)O[C@H]1C#C/C=C\C#CC[C@@H]2C(=O)N[C@@H]12 |  | > 100 |
| CC(=O)OC1CC2C(C)(C)OC(=O)CC(OC(C)=O)[C@]2(C)C2CCC3(C)C(=CCC3[C@H]3COC(=O)C3)[C@]12C (some centres not stated) |  | > 100 |
| NC1=NS(=O)(=O)Nc2nc(-c3ccc([N+](=O)[O-])cc3)[nH]c21 |  | > 100 |
| COc1cc(Nc2c3ccccc3nc3ccccc23)ccc1NS(C)(=O)=O |  | 19.8 |
| Nc1ccc2[nH]c3c(-c4ccccc4)nccc3c2c1 |  | > 100 |
| COc1cccc(/C(COc2ccc3c(c2)oc(=O)c2cc(OC)ccc23)=N/O)c1 | > 100 | > 100 |
| COc1ccc(OC)c2c(/C=C/c3ccc(N(C)C)cc3)ccnc12 |  | > 10 |
| Cc1ccc2c(=O)cc(-c3cccs3)[nH]c2n1 |  | > 100 |
| CN(O)C(=O)c1cccc(Cl)c1 |  | > 100 |
| C1C[OH+]CCNCC[OH+]CC[OH+]CCN1.[Cl-].[Pt+4] | > 100 | > 100 |

| Structure (SMILES) | GI50 [µM] | TGI [µM] |
| --- | --- | --- |
| CCC(C)C(NC(=O)CNC(=O)C(Cc1ccccc1)NC(=O)C1CCCN1C(=O)c1ccc(-c2ccc(Cl)cc2Cl)o1)C(=O)OC (configuration not stated) (X33-PFGI-OMe; configuration not given here) |  | > 100 |
| O=C1CCCCC(=O)OC2(CCCCC2=O)CC1 (configuration not stated) |  | > 100 |
| Cc1cn2c(/C=C3\C(=O)N(C)c4ccc(O)cc43)c(C)nc2s1 | 20.2 | > 100 |
| NC(=O)NNC(=O)c1nc[nH]c1[N+](=O)[O-] |  | > 100 |
| CC1CCOc2ccc(cc2)C=Nc2ccc(cc2)CCc2ccc(cc2)N=Cc2ccc(cc2)OCC1 (configuration not stated) |  | > 100 |
| Cc1cc2c(cc1Cl)SC(=Nc1ccc(Cl)cc1)N(S(=O)(=O)c1ccccc1)S2(=O)=O | 18.5 | 61.4 |
| CC(=O)c1sc(-c2nc(C)c(C(=O)/C=C\c3ccc(/C=C\C(=O)c4sc(-c5nc(C)c(C(C)=O)s5)nc4C)cc3)s2)nc1C |  | > 100 |
| N#C/C(=C/N1CCN(C(=O)c2ccco2)C1=S)C(=O)c1ccccc1 | 23.4 | 75.3 |
| COc1cc(CNc2ccc(SC)cc2)cc(OC)c1OC |  | > 100 |
| CC(C)C(=O)/C=C/c1ccc(Br)cc1 |  | 39.5 |
| O=c1[nH]cnc2cccc(Cl)c12 |  | > 100 |
| CC(=O)C1=C(C)NC2C=CC=CN12 (configuration not stated) |  | > 100 |
| COc1ccc(C(=O)COc2cccc(/C=C3\Oc4ccc5ccccc5c4C3=O)c2)cc1 | 16.5 | 42.8 |
| COCCOc1cnc2ccn([C@H](C)c3nnc4c(F)cc(-c5cnn(C)c5)cn34)c(=O)c2c1 | > 100 | > 100 |
| Cc1[nH]c(=O)[nH]c(=O)c1/C=C/C(=O)O |  | > 1000 |
| COc1cc2ncn(-c3cc(OCCc4ccccc4)c(C(N)=O)s3)c2cc1OC | > 25 | > 25 |
| COc1ccc2ncn(-c3cc(O[C@H](C)c4ccccc4Cl)c(C(N)=O)s3)c2c1 | 0.0326 | > 25 |
| C1CCC2C(C1)CCCC2NC1=NCCO1 (configuration not stated) |  | > 100 |
| C=C1C(=O)CC2C(=O)C(C)(O)CC/C=C(\C)C(=O)CC12 (configuration not stated) |  | > 100 |
| OCC1OC(n2cnc3c(Cl)nc(Nc4ccccc4)nc32)CC1O (configuration not stated) |  | > 100 |
| O=c1nc2c(c(-c3ccccc3Cl)[nH]1)COC/C2=C\c1ccccc1Cl |  | > 100 |
| Cc1ccc(S(=O)(=O)OCC(=O)O)cc1 |  | > 100 |
| Cc1cc(I)cc(CN(C)CCCN2CCOCC2)c1O | 53 | > 100 |
| Cc1cc[c-]cc1.Fc1c[c-]c(-c2ccccn2)c(F)c1.[Pt+2].c1ccc(P(C[PH+](c2ccccc2)c2ccccc2)c2ccccc2)cc1 | 2.5 | 10.3 |
| CCN1C(=O)C(=C/C=C/c2ccc([N+](=O)[O-])cc2)C(=O)N(CC)C1=S |  | > 100 |
| CC1Cn2c(nc3ccccc32)NC1=O (configuration not stated) |  | > 100 |

| Structure (SMILES) | GI50 [µM] | TGI [µM] |
| --- | --- | --- |
| CCOC(=O)/C=C(\C(=O)OCC)n1cc(C)c(=O)n(Cc2cnnn2CCCCOC(C)=O)c1=O |  | > 59.9 |
| O=C(O)CC[N+]1=CCC(c2ccccc2)(c2ccccc2)O1 |  | > 100 |
| O=C(Nc1cc(Cl)ccc1Cl)C(=O)C(c1cnc2ccccc2n1)[N+](=O)[O-] (configuration not stated) |  | > 100 |
| COc1ccc(Nc2c3ccccc3nc3occ(Cl)c23)cc1 | 0.0458 | 21.9 |
| O=C1c2ccc3c4ccccc4n(Cc4ccccc4)c3c2C(=O)N1c1ccccc1 |  | > 70.6 |
| CC(C)(C=O)CC(C#N)/C(=N\NC(N)=O)C(=O)Nc1ccccc1C(N)=O (configuration not stated) |  | > 100 |
| COc1cccc(-n2c3nc(=O)n(C)c(=O)c-3nc3ccccc32)c1 |  | 81 |
| O=C1c2ccccc2-c2nc(-c3cccc([N+](=O)[O-])c3)nnc21 |  | 22.6 |
| CCOC(=O)CNC(=O)c1ccccc1Nc1ccnc(C(F)(F)F)c1 | 28.5 | 98.9 |
| O=C(Cc1ccccc1)NN1C(=O)C(Cl)C1c1ccc(O)cc1 (configuration not stated) |  | > 100 |
| CC1CCC(=O)C(C(=O)CC2CC(=O)NC(=O)C2)C1 (configuration not stated) |  | > 100 |
| Cc1ccc2c(c1)[nH]c1cc(C(F)(F)F)ccc1[p+]2=O (configuration not stated) |  | > 100 |
| CC(=O)c1ccc2c3c1[C@@H]1O[C@@H]1c1cccc(c1-3)[C@@H]1O[C@H]21 |  | 30.6 |
| CN(C)C(=S)/N=c1\ss/c(=N\C(=S)N(C)C)n1-c1ccc(Cl)c(Cl)c1 |  | > 100 |
| CCn1c(CO)nn(-c2cc(O[C@@H](C)C(F)(F)F)c(C(=O)Nc3c(F)cccc3Cl)cc2F)c1=O | 0.348 | > 100 |
| O=C1NC(N/N=C/C(O)C(O)C(O)CO)=N/C1=C\c1ccco1 (configuration not stated) |  | > 100 |
| CCn1nc2c3c(ncn3C(C)(C)O2)c1=O |  | > 100 |
| CN(C)c1ccc(C2SCC(=O)N2NS(=O)(=O)c2cccc(C(=O)O)c2)cc1 (configuration not stated) |  | > 100 |
| Cn1cc(C2=C(c3cn(CCCCCN)c4ccccc34)C(=O)NC2=O)c2ccccc21 | 17.4 | > 25 |
| O=C1c2ccccc2CCCCCCCCCCC12OCCCO2 |  | > 100 |
| CCCC(C)NC1=C(NC(C)=O)C(=O)c2ccccc2C1=O (configuration not stated) |  | > 100 |
| Nc1cccc(Nc2nc3ccccc3nc2NS(=O)(=O)c2ccccc2)c1 |  | > 100 |
| C[C@@]12CCCc3coc(c31)C(=O)c1cc3c(cc12)C(=O)C=CC3=O |  | > 1 |
| O=C(Nc1ccc(Br)cc1)c1ccc(Cl)c(Cl)c1 | 2.98 | > 100 |
